# Reference: the supplement of paper PMC10126150
# Values marked as one replicate rest on one cluster of the flow cell; about a third of the high ones do not repeat.
# System: ATP
# Assay: switch fluorescence ratio, 500 uM ATP over buffer (Cy3 cluster intensity, sum of 5 cycles each) (fold (ratio)); higher = stronger signal-on switching upon ATP binding; sequences stand for … in TCGTCGGCAGCGTCAGATGTGTATAAGAGACAGTTTTTTTTTTTTTTTTTTTTTTTTT…TC
# Conditions: aptamer strand: ATP DNA aptamer (quencher-CACCTGGGGGAGTATTGCGGAGGAAGG + anchor), 100 nM annealed; ATP concentration: 500 uM; one replicate
# In short: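 The fluorescence ratio divides summed target-cycle Cy3 intensity by summed buffer-cycle Cy3 intensity for each cluster and is averaged per switch-domain sequence. Cy3-labelled switching-strand clusters on a modified Illumina MiSeq flow-cell were annealed to 100 nM quencher-labelled ATP aptamer, then imaged in selection buffer and again after 15 min with 500 uM ATP at 22 °C. Five such cycles were run, with NaOH stripping and re-annealing between them, and clusters outside 100-1000 RFU were excluded.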
# 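Note: ATP exposure 15 min at 22 °C before imaging.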
row,Sequence,switch fluorescence ratio
1,GCTTCTAGGG,0.997
2,ACACGAACCG,1.26
3,CGATCACGGG,1.11
4,TCCGACCTCT,1.88
5,GTAACGCGAG,1.01
6,GTGGAGGGGT,1.02
7,CAGTGGGATC,0.994
8,CCACGGTCGA,1.06
9,AATAAGCAA,1.6
10,TGCTTCAAAT,1.03
11,AAAGTCTTGC,1.07
12,TTTTGCATT,1.08
13,TCTTTCGCGG,2.17
14,GCAATGGACT,1.29
15,ACTGTGACAA,1.09
16,GATATCGTA,0.989
17,TTCTGGAGTG,1.06
18,TTAGCAATGT,2.35
19,TTGAACAGTG,1.04
20,ACAGTCAAGC,1.09
21,GCACATGTGC,0.99
22,ACGACTATGG,0.967
23,TAGATAACTT,1.02

row,Sequence,switch fluorescence ratio
1,TCTAAGGCGT,1.02
2,GCCATCCCAG,1.04
3,GCCATGAAGT,1.02
4,GGGTATAAAG,0.985
5,AGTGCAGCA,1.08
6,AAAGGATCTG,1.03
7,AATGACGTTA,1.09
8,ATTCAAAGAT,1.01
9,GTGGGAGCAG,1
10,TTATGTGCTA,0.923
11,TCCGCTCGGG,1.18
12,TATTTAGATA,1.01
13,TCAATCTAAT,0.958
14,ATTCGCGTCT,1.02
15,GTTGAGCAGC,1.04
16,CGCTGACGGG,1.05
17,TGGCGGGCGG,1.03
18,TAGGTGTTGA,1.18
19,TAAATATATT,0.938
20,CTCCCGGTCG,1.02
21,TCCTTCCGGA,2.31
22,TCAGGTATTT,1.03
23,AGATCGGTAG,0.96

row,Sequence,switch fluorescence ratio
1,GGTTAAAACG,1.11
2,ACATTAGCCT,1.06
3,TAGCGCTAGT,0.983
4,AATAAAATAG,0.981
5,TTCATCAACG,1.05
6,TGAATGTTTT,0.985
7,TCAGTAAATC,1.03
8,CGCTGGTTGC,1.08
9,TCTAAGGATC,1.05
10,TGATACTTGT,0.994
11,TTAGATTATT,1.01
12,TAGGTCAAGC,0.992
13,TTCTTTGAGC,0.989
14,AATTTACTCA,1.07
15,TTACCGCCAG,1.08
16,CATAAGCACC,1.42
17,TTCTCAGCGA,3.67
18,GCCGCTTCGG,1.03
19,AGGTAGTGAG,0.967
20,GGAAGGGCGT,1.02
21,GATCGACACT,1.02
22,TTAAGGGAGA,0.982
23,AGAACCGCGT,1.02

row,Sequence,switch fluorescence ratio
1,ACTTAGCTGG,0.985
2,TTTATGCGAC,1.01
3,TTGGGGCGAA,1.03
4,TGCAATTCGG,1.29
5,GTAGTACCTT,1.08
6,AGGTTGAGTG,0.992
7,ATCGGGCTGG,0.995
8,ATAGTCTTAG,1.02
9,TCGCTGGCAT,0.976
10,GGACGGTGCT,0.979
11,AGGTTTAAGA,0.991
12,GCGATAACGC,0.993
13,CGCTGGGCGG,1
14,AGCAAGTATA,1.04
15,TTTTCGTAGA,1.04
16,ATGCGTGGCA,1.02
17,TGATATCAC,0.998
18,CCAGTGCTCG,1.03
19,CGTGCGTCCG,0.894
20,AGTTTTAAAT,0.997
21,AATAATTCC,1.08
22,AAGGCGCGAG,1.03
23,TCTTAACGAC,1.14

row,Sequence,switch fluorescence ratio
1,AAGGGAGCCG,0.99
2,CCACCCCAAT,2.97
3,TGCGCTTATT,1.01
4,TGTTACGGT,1.01
5,GTACGTTTTG,0.974
6,GGCAAGTGAT,1.03
7,GCCCGAAGTG,1.02
8,AAGGGTTGTA,0.993
9,GGCGCCTCGG,0.969
10,TCAAGTGCTG,0.892
11,AGGGTCTAGG,0.965
12,ACCTGAAAAG,0.986
13,TACTAGTCTT,0.989
14,CCTGATTAAC,1.05
15,TCATCTGGAC,1.08
16,GACGAACCCT,1.3
17,CGAGCTTACA,1.25
18,AACCACGTGG,0.968
19,CGAAGAGACA,1.06
20,CAAACGGGCC,1.38
21,TGATTTGTG,0.939
22,AGAGTCAGAA,0.961
23,CAGGGGTAGT,1.01

row,Sequence,switch fluorescence ratio
1,CAATCAGGTG,4.46
2,CGTGGATTCT,0.977
3,GTATGC,0.982
4,CCCAATTTC,1.62
5,CCTCCTTTTT,0.976
6,ATTAGAACTA,0.963
7,CCAACGGATA,1.1
8,TGAGAATGTA,0.999
9,TTTTGAATTC,0.973
10,TGGTGCACTT,1.02
11,AATTGCGTAA,0.973
12,TGACTTT,1.02
13,TATAGGTCAT,0.962
14,CGTGACGAAA,1.42
15,AAGTTTCCTG,0.954
16,TATTGGAGCA,0.975
17,CGGCCCTGTA,1.05
18,CGCCTCTTGG,0.947
19,ATTGGCCTTA,1.03
20,GTGAAGGAG,0.991
21,ACGGACAGGC,1.35
22,AGTGGGGTTG,0.941
23,GGGTTTATAC,1.02

row,Sequence,switch fluorescence ratio
1,TCCTCACTG,1.16
2,ACGAACGGTT,1.37
3,GCAGTGACTA,1.05
4,CCTTTCGTGA,1.77
5,GTGGGTGGGC,0.974
6,TGTATCATAT,1.03
7,TAAGATGAG,0.989
8,CGGTCTCTCA,0.985
9,GGTAGCCAAT,0.988
10,ATCTTGGTTA,1
11,AGGGGATCCG,0.977
12,AACTATATA,1.02
13,CAGGGAACTT,1.02
14,GCTCTGGCTC,1.04
15,AAGGGAAAA,1.05
16,GGTGGATTA,0.978
17,TTGTTGTACG,1.06
18,GGTATATCAG,0.978
19,TAGCAGAGTT,0.986
20,TGAAGCCGG,1.05
